Measured values from paper PMC4336329 (PLoS ONE, 2015).
In all, about 310,000 compounds went through this assay and about 14,000 (4.5%) showed an effect of 50% or more. The effect is printed as a negative number. Some of the results follow.

Each compound was assayed against human ether-à-go-go-related gene (hERG) potassium channel (human, UniProt Q12809) (assay: primary screen, population patch clamp on CHO cells stably expressing hERG).
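Also: peak tail current of the secondary pulse compared with the same well before compound.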

human ether-à-go-go-related gene (hERG) potassium channel, sequence (Q12809 whole entry, looked up): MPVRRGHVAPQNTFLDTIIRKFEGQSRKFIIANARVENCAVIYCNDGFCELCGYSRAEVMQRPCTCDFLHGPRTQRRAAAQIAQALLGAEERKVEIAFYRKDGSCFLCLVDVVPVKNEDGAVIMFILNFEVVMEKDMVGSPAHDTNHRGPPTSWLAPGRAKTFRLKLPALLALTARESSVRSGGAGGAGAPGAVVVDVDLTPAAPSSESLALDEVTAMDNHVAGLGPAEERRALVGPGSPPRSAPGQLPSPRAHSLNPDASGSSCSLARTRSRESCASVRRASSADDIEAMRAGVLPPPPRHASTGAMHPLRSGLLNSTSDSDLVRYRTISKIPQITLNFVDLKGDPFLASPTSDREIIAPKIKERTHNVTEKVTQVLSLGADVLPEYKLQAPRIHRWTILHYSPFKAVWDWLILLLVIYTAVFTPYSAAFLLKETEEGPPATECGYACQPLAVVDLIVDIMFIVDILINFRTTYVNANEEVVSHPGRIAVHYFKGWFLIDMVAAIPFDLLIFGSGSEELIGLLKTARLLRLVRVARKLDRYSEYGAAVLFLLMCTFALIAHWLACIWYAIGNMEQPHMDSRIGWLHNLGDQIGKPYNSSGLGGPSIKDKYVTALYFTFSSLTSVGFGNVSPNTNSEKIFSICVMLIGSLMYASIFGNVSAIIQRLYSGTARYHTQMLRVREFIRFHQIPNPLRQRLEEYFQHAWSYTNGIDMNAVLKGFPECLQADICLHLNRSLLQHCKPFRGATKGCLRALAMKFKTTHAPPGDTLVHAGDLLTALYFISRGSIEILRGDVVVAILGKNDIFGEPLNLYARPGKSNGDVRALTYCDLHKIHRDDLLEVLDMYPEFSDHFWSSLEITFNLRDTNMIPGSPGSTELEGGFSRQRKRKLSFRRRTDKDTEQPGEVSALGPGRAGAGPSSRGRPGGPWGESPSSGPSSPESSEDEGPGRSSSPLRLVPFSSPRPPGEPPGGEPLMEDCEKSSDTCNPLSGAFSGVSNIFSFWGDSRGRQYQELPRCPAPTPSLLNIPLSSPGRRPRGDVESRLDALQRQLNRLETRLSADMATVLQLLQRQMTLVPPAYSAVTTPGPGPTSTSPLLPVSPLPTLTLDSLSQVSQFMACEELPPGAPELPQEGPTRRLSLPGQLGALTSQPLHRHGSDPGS

In order of rising “hERG current change (%, negative = inhibition) at 10uM” value:
1. OC1(c2ccc(Cl)cc2)CCN(Cc2cn[nH]c2-c2ccccc2)CC1  -77.7%
2. CCOC(=O)N1CCC(NC(=O)C2CCCN(Cc3nc(-c4cccc(Cl)c4)oc3C)C2)CC1 (centres unmarked)  -72.2%
3. O=C(Nc1ccc(C(=O)N2CCN(c3ccccn3)CC2)cc1)c1ccc(Br)o1  -66.7%
4. COc1ccc(/C=N/NC(=O)c2ccccc2[N+](=O)[O-])cc1CN1CCc2cc(OC)c(OC)cc2C1C (centres unmarked)  -63.9%
5. CC(C)[C@@H](CSc1ccccc1)N1CCN(Cc2ccccc2)CCC1=O  -63.4%
6. CCN1CCN(c2nc3sc4c(c3c(=O)n2-c2ccc(OC)cc2)CCCCC4)CC1  -60.3%
7. CCOC(=O)N1CCN(Cc2nc3ccc([N+](=O)[O-])cc3c(=O)n2-c2cccc(OC)c2)CC1  -39.8%
8. COc1ccc(C(CNC(=O)Cc2ccc(Cl)c(Cl)c2)N2CCCCC2)cc1 (centres unmarked)  -36.5%
9. O=C(CN(Cc1cccs1)C(=O)CNS(=O)(=O)c1ccc(Cl)cc1)NCc1ccco1  -34.9%
10. COc1ccc(-c2cn(-c3ccc(Cl)cc3)c3[n+]2CCCCC3)cc1.[Br-]  -31.9%
11. COc1cc(NC(=S)NCc2cccnc2)c(OC)cc1Cl  -27.9%
12. Cc1cc(OCC(=O)N2CCc3ccccc3C2)c2c(-c3ccccc3)cc(=O)oc2c1  -20.7%
13. COc1ccc(NC(=O)/C(=C\c2cc(OC)c(OC)cc2[N+](=O)[O-])NC(=O)c2ccccc2)cc1  -18.4%
14. Cc1ccc(CNC(=O)C(Cc2ccccc2)NS(=O)(=O)c2cccs2)cc1 (centres unmarked)  -18.3%
15. CCCCOC(=O)Nc1ccc(OC)cc1S(=O)(=O)N1CCOCC1  -17.5%
16. Cc1ccccc1NC(=O)CSc1nc(N)c2c3c(sc2n1)CSC(C)(C)C3  -16.1%
17. CCOc1ccccc1NC(=O)CSc1nc(=O)n(CCN2CCOCC2)c2c1CCCC2  -15.6%
18. CCc1cc(C(=O)N2CCN(c3ccccc3OC)CC2)sc1C  -15%
19. Cc1cc2cc(C)c3nnc(SCC(=O)N4CCN(C(=O)c5ccco5)CC4)n3c2cc1C  -13.2%
20. Cn1c(=O)c(=O)n(C)c2cc(S(=O)(=O)N3CCCC3C(=O)Nc3ccc(F)cc3)ccc21 (centres unmarked)  -11.8%
21. CN1C(=O)NC(c2ccc(O)cc2)C2=C1CN(c1cccc3ccccc13)C2=O (centres unmarked)  -11.8%
22. O=C(CCSc1nnc(-c2ccncc2)o1)Nc1ccccc1Cl  -10.9%
23. COC(=O)c1nc(-n2nc(C)cc2C)ccc1Cl  -9.85%
24. O=C(OCc1cnc(Cl)s1)c1cccc(Cl)c1  -7.77%
25. CC(C)CCN1CCN(C2CSCCSC2)CC1CCO (centres unmarked)  -7.6%
26. CN(C)S(=O)(=O)Oc1ccsc1C(=O)Nc1cccc(Cl)c1  -7.19%
27. CCN1CCOC(CC(=O)Nc2ccc([N+](=O)[O-])cc2)C1=O (centres unmarked)  -5.8%
28. O=C(CNC(=O)COc1ccccc1)NCc1ccccc1F  -5.26%
29. CC1=CC(=O)N(c2cccc(C(F)(F)F)c2)C1c1ccc(Cl)cc1 (centres unmarked)  -5.25%
30. COC(=O)c1c(C)nc(C)c2c(=O)oc3ccccc3c12  -4.32%
31. Cc1ccc(C(=O)NCC(=O)N2CCc3ccccc3C2)cc1C  -3.34%
32. Cc1nc(-c2coc3cc(OCC(=O)O)ccc3c2=O)cs1  -3.01%
33. Cc1ccc(C(=O)OCC(=O)c2c[nH]c3ccccc23)cc1NC(=O)c1ccco1  -2.89%
34. Cc1ccc(CNC(=O)CC2C(=O)Nc3c2c(=O)n(C)c(=O)n3Cc2ccccc2)cc1 (centres unmarked)  -2.14%
35. CCN(CC)S(=O)(=O)c1ccc(N2CCOCC2)c(NC(=O)C23CC4CC(CC(Cl)(C4)C2)C3)c1  -1.94%
36. COc1ccc(-n2c(O)c(/C=N/n3cnnc3)c3ccccc3c2=O)cc1  -1.22%
37. Cc1ccc(S(=O)(=O)NC(CC(C)C)C(=O)N2CCOCCOCCOCCOCC2)cc1 (centres unmarked)  -1.12%
38. COc1cc2cc(Oc3ccc4ccc(=O)oc4c3)c(=O)oc2cc1OC(=O)C=C(C)C  -0.475%
39. COc1ccc(COc2ccc3c(C)cc(=O)oc3c2)cc1  1.32%
40. Nc1ccn(-c2ncc(C(F)(F)F)cc2Cl)c(=O)n1  1.7%
41. CC(C)(OC(=O)c1cccs1)c1cc2ccccc2c(=O)o1  1.83%
42. CC(C)(C)NC(=O)C(c1ccc(F)cc1)N(Cc1ccco1)C(=O)c1csnn1 (centres unmarked)  2.96%
43. O=C(CSc1nnc2n1CCCN2)c1ccccc1  4.15%
44. O=C(O)c1cc(S(=O)(=O)Nc2ccccc2C(=O)O)ccc1O  4.16%
45. COc1ccc(-n2ncc3c(N(C)C4CCCCC4)ncnc32)cc1  4.48%
46. COc1cc(C(Nc2ccccn2)c2ccc3ccc(C)nc3c2O)cc(OC)c1O (centres unmarked)  4.64%
47. COc1ccccc1C(C)NC(=O)CCOc1cccc(C)c1 (centres unmarked)  5.46%
48. CC(=O)c1cccc(NC(=O)C2C(c3ccccc3)C2(Cl)Cl)c1 (centres unmarked)  5.69%
49. CC1CCN(C(=O)Cn2cnc3c(cnn3C(C)(C)C)c2=O)CC1  5.92%
50. CCN(CC)c1ccc(SS(=O)(=O)[O-])cc1.[Na+]  5.98%
51. COC(=O)c1ccc(Oc2coc3cc(OCc4cnn(-c5ccccc5)c4)ccc3c2=O)cc1  7.07%
52. CC(C)N(CCC#N)C(=O)Nc1ccc2c(c1)CCO2  7.47%
53. ClC(Cl)c1nnc(-c2ccccc2)c(-c2c[nH]c3ccccc23)n1  7.76%
54. CCC1=C(OC(=O)N(CC)CC)N2C(=O)OC(=NCC3CC3)[C@]2(Cc2ccccc2)[C@H]2C1=CC[C@H]1C(=O)NC(=O)[C@H]12  8.57%
55. COC(OC)C(C)NC(=O)NC(=O)c1ccccc1Cl (centres unmarked)  8.81%
56. C=CCNC(=O)c1ccc2c(=O)n(Cc3ccccc3OC)c(=S)[nH]c2c1  8.92%
57. COc1ccc(-n2c(=O)cc(N3CCN(Cc4ccccc4)CC3)[nH]c2=O)cc1  9.28%
58. COc1ccc(C(=O)CCC(=O)Nc2cccnc2)cc1  9.39%
59. COc1ccc(NS(=O)(=O)c2ccc(F)c(Cl)c2)cn1  9.8%
60. COc1ccc(C(=O)Nc2ccc(C)cc2C(=O)c2ccccc2)c(OC)c1  9.85%
61. O=C(CCN1C(=O)c2ccccc2C1=O)Nc1cccc(O)c1  9.89%
62. COc1ccc(CSc2nnc(-c3ccncc3)n2N)cc1  10.6%
63. COc1ccc(C(=O)C2CCCN(S(=O)(=O)c3cccc(C)c3)C2)c(C)c1 (centres unmarked)  11%
64. C/C(N)=C(/C#N)C(=O)CN1C(=O)NC(Cc2c[nH]c3ccccc23)C1=O (centres unmarked)  11.3%
65. O=C(NNS(=O)(=O)c1ccccc1)c1ccc(O)cc1  11.4%
66. Cc1ccsc1/C=C/c1n[nH]c(=O)c(C#N)c1C  11.4%
67. O=C1CC(NNC(=O)c2ccc(Br)cc2)C(=O)N1 (centres unmarked)  12.6%
68. CCOC(=O)C1=C(C)N=c2s/c(=C\c3ccc(OCC(=O)O)cc3)c(=O)n2C1c1ccccc1OC (centres unmarked)  12.8%
69. Cn1nc(N2CCN(S(=O)(=O)c3ccccc3)CC2)c(=O)n(C)c1=O  12.9%
70. O=C(Cn1cncn1)NCc1cc(F)ccc1F  13.7%
71. CCCCNC(=O)CSc1nc2ccc(NC(=O)CSc3nnc(N)s3)cc2s1  14.9%
72. Cc1ccc(NC(=O)NCc2ccc3[nH]c(C)cc3c2)cc1  16%
73. COc1ccc(/C=C(\C#N)c2cc(OC)c(OC)cc2[N+](=O)[O-])cc1  17.1%
74. Cc1ccccc1NC(=O)CCN1CCN(C)CC1  19.4%
75. CCc1ccc(NC(=O)CSc2nc3ccccc3nc2N2CCCC2)cc1  20.3%
76. Cc1ccccc1C(=O)c1cccn1CC(=O)NCCC1=CCCCC1  20.5%
77. O=C(c1ccccc1)C(O)C(c1ccccc1)N1CCOCC1 (centres unmarked)  21.7%
78. CCN1C(=O)/C(=C2\C=Cc3ccccc3N2CC)SC1=S  21.9%
79. O=C(O)c1cccc(S(=O)(=O)Nc2ccc3c(c2)OCO3)c1  23.4%
80. CC(C(=O)C12CC3CC(CC(C3)C1)C2)N1CCOCC1.Cl (centres unmarked)  23.4%
81. COc1ccc([N+](=O)[O-])cc1NC(=O)C(C)OC(=O)C1c2ccccc2Oc2ccccc21 (centres unmarked)  23.5%
82. O=C1N(Nc2ccccc2)C(c2ccc(Br)cc2)C12CCCC2 (centres unmarked)  26.1%
83. N/C(=N\NC(=O)c1ccccc1Cl)c1cc2ccccc2oc1=O  26.2%
84. CCOc1ccc(NC(=O)CC(NCc2ccccn2)C(=O)O)cc1 (centres unmarked)  29.3%
85. CCc1c(C2(O)CCCCC2)[nH]c2ccc(C(F)(F)F)cc12  31%
86. Cc1ccc(-c2nn(CCC(=O)O)cc2/C=C\C(=O)c2ccc(Br)cc2)cc1  56.7%
